We go through 1 compound from patent publication US12090125B2, “Combination therapy” (Novartis AG, priority 2019, dated 2024).

Where two headings read alike, the source gives them in different places.

The subject of assay [1] is patients with type 2 diabetes. Briefly: VERIFY study: rate of loss in glycaemic control in fasting plasma glucose (FPG). The following applies: Mean ± Standard Error.
The test system of assay [2] is patients with type 2 diabetes. Briefly: VERIFY study: rate of change of insulin sensitivity from baseline to end of study. The following applies: Mean ± Standard Error.
The test system of assay [3] is patients with type 2 diabetes. The settings on record: Mean ± Standard Error.
The subject of assay [4] is patients with type 2 diabetes. Briefly: VERIFY study: time to first adjudicated macrovascular event. The following applies: in vivo.
Assay [5] concerns patients with type 2 diabetes. Briefly: VERIFY study: time to initial treatment failure (HbA1c at least 53 mmol/mol (7.0%) at two consecutive scheduled visits, period 1). The following applies: for Time to initial treatment failure: Number (95% Confidence Interval).
For assay [6], the system named is patients with type 2 diabetes. The following applies: Mean ± Standard Error. The source holds these as a separate data set.
[7] abbreviates: From Week 13 to end of Period 1.
The mark [8] stands for this setting: From Week 13 to end of Period 2.

For `CN(C)C(=N)NC(=N)N` [Placebo + metformin, N,N-dimethylbiguanide], the “Rate of loss in glycemic control in Fasting Plasma Glucose (FPG) during Period 1” value in assay [1] is listed as 0.26 ± 0.01 Rate (%). Also, the “Rate of loss in glycemic control in Fasting Plasma Glucose (FPG) over time during Period 2” value in assay [1] was 0.99 ± 0.19 Rate (%). In addition, the results for the “Rate of change in insulin sensitivity from baseline to end of study” value in assay [2] (setting [7]), in assay [2] (setting [8]) and in assay [2] (From Week 13 to end of study) were 0.41 ± 1.66 Rate (%), −0.99 ± 1.24 Rate (%) and −1.01 ± 1.17 Rate (%), respectively. The “Rate of loss of beta cell function from baseline to end of study” value is −0.53 ± 0.18 Rate (%) in assay [3] (setting [7]), −0.43 ± 0.15 Rate (%) in assay [3] (setting [8]) and −0.46 ± 0.05 Rate (%) in assay [3] (From Week 13 to end of study). In addition, the “absolute cumulative number of recurrent events (macrovascular)” value in assay [4] came to 44. In addition, the “adjudicated first macrovascular events” value in assay [4] was 33 (3.3%) patients (%). Besides, the “Time to initial treatment failure” value in assay [5] (>Year 5) is on record as 74.39 Rate (%); in assay [5] (Weeks 13-52), 19.97 Rate (%); in assay [5] (Year 2) it was 34.67 Rate (%); in assay [5] (Year 3), 48.21 Rate (%); in assay [5] (Year 4), 59.29 Rate (%); in assay [5] (Year 5), 66.57 Rate (%). Further, the “incidence of initial treatment failure during period 1” value in assay [5] (in vivo) was 614 (62.1%) patients (%). Also, the “Rate of loss in glycemic control during Period 1” value in assay [6] is 0.27 ± 0.01 Rate (%). Moreover, the “Rate of loss in glycemic control in HbA1c over time during Period 2” value in assay [6] is 1.02 ± 0.12 Rate (%).
